Source: patent US6642398B2, “Mono-and disubstituted 3-propyl gamma-aminobutyric acids” (Warner-Lambert Company, priority 1999, dated 2003)
Counter-ions that a name gives are not always drawn.

Target: α2δ subunit derived from porcine brain tissue (Sus scrofa, UniProt A0A287BIN3)
Assay: radioligand binding assay using [3H]gabapentin

| SMILES | IC50 [µM] |
| --- | --- |
| CCC(CC)C(CN)CC(=O)O (centres unmarked) | 0.206 |
| CCC[C@H](C)C[C@H](CN)CC(=O)O [(3S,5S)-3-Aminomethyl-5-methyl-octanoic acid] | 1.2 |
| CCCCC(C)CC(CN)CC(=O)O (centres unmarked) [3-Aminomethyl-5-methylnonanoic acid] | 0.178 |
| CCC[C@@H](C)C[C@H](CN)CC(=O)O [(3S,5R)-3-Aminomethyl-5-methyl-octanoic acid hydrochloride] | 0.012 |
| CC(C)[C@@H](C)[C@H](CN)CC(=O)O [(3R,4R)-3-Aminomethyl-4,5-dimethyl-hexanoic acid] | 0.022 |
| CCCC(C)C[C@H](CN)CC(=O)O (stereo partly drawn) [(S)-3-Aminomethyl-5-methyl-octanoic acid] | 0.0126 |
| CC(Cc1ccccc1)CC(CN)CC(=O)O (centres unmarked) [3-Aminomethyl-5-methyl-6-phenyl-hexanoic acid] | 9.08 |
| CCCC(C)CC(CN)CC(=O)O (centres unmarked) [3-Aminomethyl-5-methyloctanoic acid, 3-Aminomethyl-5-methyl-octanoic acid] | 0.019 |
| CC(C)CC(C)CC(CN)CC(=O)O (centres unmarked) [3-Aminomethyl-5,7-dimethyl-octanoic acid] | 0.359 |
| CC(C)[C@@H](C)[C@@H](CN)CC(=O)O [(3S,4R)3-Aminomethyl 4,5-dimethyl-hexanoic acid] | 2.2 |
| CCCC(C(C)C)C(CN)CC(=O)O (centres unmarked) [3-aminomethyl-4-isopropyl-heptanoic acid, 3-Aminomethyl-4-isopropyl-heptanoic acid] | 0.671 |
| CC(CC(CN)CC(=O)O)C(F)(F)F (centres unmarked) [3-Aminomethyl-6,6,6-trifluoro-5-methyl-hexanoic acid] | 4.69 |
| CCCCCC(C)CC(CN)CC(=O)O (centres unmarked) [3-Aminomethyl-5-methyldecanoic acid] | 0.15 |
| CC(CC(CN)CC(=O)O)CC(C)(C)C (centres unmarked) [3-Aminomethyl-5,7,7-trimethyl-octanoic acid] | > 10 |
| CCC(C)CC(CN)CC(=O)O (racemic) [3-Aminomethyl-5-methylheptanoic acid] | 0.092 |
| CCCCC(C(C)C)C(CN)CC(=O)O (centres unmarked) [3-aminomethyl-4-isopropyl-octanoic acid, 3-Aminomethyl-4-isopropyl-octanoic acid] | 5.4 |
| CC(C)[C@H](C)[C@H](CN)CC(=O)O [(3R,4S)-3-Aminomethyl-4,5-dimethyl-hexanoic acid] | 1.7 |
| CC(C)[C@@H](C)C(CN)CC(=O)O (some centres unmarked) | 0.04 |
| CCC(C)CC(CN)CC(=O)O (centres unmarked) | 0.092 |
| CC(CC(CN)CC(=O)O)C1CCCCC1 (centres unmarked) [3-Aminomethyl-5-cyclohexyl-hexanoic acid] | 7.3 |
| CCCCCCC(C)CC(CN)CC(=O)O (centres unmarked) [3-Aminomethyl-5-methylundecanoic acid] | 0.163 |
| CC[C@@H](C)[C@H](CN)CC(=O)O | 1.8 |
| CCCC[C@@H](C)C[C@H](CN)CC(=O)O [(3S,5R)-3-Aminomethyl-5-methyl-nonanoic acid hydrochloride] | 0.026 |
| CCC(C(C)C)C(CN)CC(=O)O (centres unmarked) [3-aminomethyl-4-isopropyl-hexanoic acid, 3-Aminomethyl-4-isopropyl-hexanoic acid] | 0.49 |
| C=CCC(C)CC(CN)CC(=O)O (centres unmarked) [3-Aminomethyl-5-methyl-oct-7-enoic acid] | > 10 |
| CC(CC(CN)CC(=O)O)C1CCCC1 (centres unmarked) [3-Aminomethyl-5-cyclopentyl-hexanoic acid] | > 10 |
| CC(CF)C[C@H](CN)CC(=O)O (stereo partly drawn) [(S)-3-Aminomethyl-6-fluoro-5-methyl-hexanoic acid] | 0.605 |
| CCCCC[C@@H](C)C[C@H](CN)CC(=O)O [(3S,5R)-3-Aminomethyl-5-methyl-decanoic acid] | 0.0297 |
| CC(CC(CN)CC(=O)O)c1ccccc1 (centres unmarked) [3-Aminomethyl-5-phenyl-hexanoic acid] | 10.1 |
